Values marked as one replicate rest on one cluster of the flow cell; about a third of the high ones do not repeat.
Tested on: ATP
Assay: switch fluorescence ratio, 500 uM ATP over buffer (Cy3 cluster intensity, sum of 5 cycles each) (fold (ratio)); higher = stronger signal-on switching upon ATP binding; sequences stand for … in TCGTCGGCAGCGTCAGATGTGTATAAGAGACAGTTTTTTTTTTTTTTTTTTTTTTTTT…TC
Conditions: aptamer strand: ATP DNA aptamer (quencher-CACCTGGGGGAGTATTGCGGAGGAAGG + anchor), 100 nM annealed; ATP concentration: 500 uM; one replicate
How it was run: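 Switching-strand clusters labelled with Cy3 on a modified Illumina MiSeq flow-cell were annealed to 100 nM quencher-labelled ATP aptamer, imaged in selection buffer, and re-imaged after 15 min with 500 uM ATP at 22 °C. This was done over five cycles with NaOH stripping and re-annealing in between. The fluorescence ratio is summed target-cycle over summed buffer-cycle Cy3 intensity per cluster, averaged per switch-domain sequence, excluding clusters outside 100-1000 RFU.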
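Note: ATP exposure 15 min at 22 °C before imaging.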

Sequence	switch fluorescence ratio
TTAGAAGTGT	0.9
GGATTAGTTG	0.992
GGGAAGTGCG	0.949
CTCCGTCGTA	1.24
ATACTGGGTC	0.995
ATTTCTGAGC	1.03
CACTAGAAAG	1
AGGTGACCAG	1.07
GAACCCTTAT	1.01
GCGTGATTGA	1
ACCTGGGTTG	1.06
TCAGTGTGCA	1.01
AAGCTATAGC	1.04
CGTGACTAGG	0.978
CGTGCATTCA	0.969
TTTCGGGT	1
GGATGATTAG	1.02
GATCTTCTGT	1.05
AATGCGACGA	1.03
CCCAGGCGC	1.88
AATTAAATAC	1.2
TTAGTGGTT	1.01
CGCCGGACCT	1.01
TCTGTAGAAT	1.15
GCGGTTAATA	1
ATCACTCATG	0.997

Sequence	switch fluorescence ratio
TGGTATATTG	0.959
CGCTGTGCCT	0.962
ACGAGGGTTC	1.06
ATCGACGGAT	0.99
CAAGATGGCG	1.09
CATACACAA	1.72
TTCAGCCTCG	1.03
AATAGACGAG	0.985
TTGTGCGGAT	0.987
GACCCCCAAG	1.04
CGAGTTGTAG	1.01
TAGTTTACCT	1.08
CAAGGGTAAA	0.979
GTCGGGTCCT	0.993
AATCTCATTT	1.02
ATACCTGAGA	0.987
CTGTTAGAAA	0.989
GGACAGGCCT	1.09
GATTGCACGT	1.02
GGTGATTTG	0.998
CGACTGGCAT	1.86
TCCACTGAAC	1.2
CGGAGGATGT	1.03
CCAAGAGGGT	1.03
TAGAATGAAC	0.977
ATTACTCGAC	1.32

Sequence	switch fluorescence ratio
CGCACGACCT	2.3
ATCACCAATC	1.06
GCGGGAAGGT	0.95
GATCCTCGCA	1.17
GTTGAGCTGT	1.02
TTTTACAGT	0.99
TATACCTGTG	0.979
GATAGTAG	1
CCGGAGGCCT	1.1
GTATCACGCT	1
GCAACGATTT	1.06
CAAGACGGGG	1.03
TTCCAGATGG	0.99
CAGGCGCCAT	0.991
CTTTTCAATG	1.02
ATCGTCGTT	1
GCAGGCTGTG	1.02
CGTGGAGAGA	1.01
ATGGATTCGT	0.937
GATGATTCCA	0.985
CCATGGTTG	1.04
GATAATTACG	1.06
GTCTGGGGAT	0.975
CCATGATACA	1.01
ATCGTGTACT	1.03
TGATTGTCGG	0.989

Sequence	switch fluorescence ratio
TCCTATCGGT	1.1
TCTTCGCGTC	1.3
TTAGTTGGTT	0.945
GTTCTACGGC	1.04
TGGTTCCGG	0.979
ATTACCTGGG	0.986
TTGCGGTTGC	1.16
GATTGACGAG	0.932
GATTCTCGCG	0.996
GGTTACATAT	1.04
CCTCAGTCCG	1.15
GCCCCTGATG	1.19
TGGGTATGC	1.02
CTCGATTAGC	1.01
GTGATGTGTG	0.976
GCGGTCATGC	0.98
CGAGTCAGCC	1.02
CTTGATCGAC	1.02
TGGGCCTCGG	0.968
AGGTAAGCAG	0.989
CGTTTTAATT	1.02
ATCTTCCAAA	1.06
CTAAGTTGGA	0.984
GATACAGGTA	1.04
TATAAAGAGT	0.967
AGGTACGTGA	1.1

Sequence	switch fluorescence ratio
GTTTCGACAT	1.03
TTGGTTGTG	1.02
GGTTAGTCAT	1.02
TTCATTTGCG	0.985
CCCGGAGGT	0.964
TCCCCTTCAG	1.02
CTGGGAGGA	0.977
ATAATTGAAT	1.01
GATTTATGAA	0.975
TTTAATTTAC	1.05
CCGCACCAAA	3.02
GTCACCTGCC	2.04
TCAGCTCAAC	1.12
GAGGCCAGAA	1.01
TCGTGCGTAG	0.997
GGCTCAGCTA	1.13
TTAAATTCAA	0.951
GCTTGAGGAC	0.997
CGTATGACCA	0.993
TCTGGATTAA	0.955
TGAGTTTCCC	0.981
TACGATGCAT	5.31
CTCGCCTGG	1.06
GGGGCGCATT	1.15
TGCGACGTTT	0.975
TCACATCGTC	1.01

Sequence	switch fluorescence ratio
TGAAAACCCC	1.49
CTTCTTACCA	1.02
CGTTATCAAT	1.01
TGTGTATGTG	1.03
GTTCCGCACG	2.8
GGTTTATACA	1
CTCAGCAGGA	1.43
CCTAGATT	1.02
ACGCATCGCC	1.2
CGACAATCGG	1.01
GAGGTTCAGC	0.908
TCGGGTGCAC	0.982
GGTCAATTAA	0.997
GAGCACCGGA	1.1
GACATAAACG	1.01
ATAGCCGGCT	0.978
TATCCTGCCC	1.04
GTTTGACAGC	1.01
GTGTTCCATG	1.01
GCGTCGATCG	0.998
CATCCGTACA	4.93
AATTCCAGCG	1
ACCGACGTGA	3.13
AGACTAGTAG	0.975
AATATGAATC	1.03
TTAGCCTTC	1.07

Sequence	switch fluorescence ratio
AAGGCTCCCA	1.01
CACAGTATTA	1.07
CCAGTTCTT	0.95
ACGCAGTACC	2.98
CACCTTGCCC	1.17
GTTGTTCGTT	1.04
ATAGGAGTC	1
TTTCCGAATA	5.7
TACATCTGAG	1.04
CCTAACTAGG	1.01
TCAGTCGGCC	0.991
CTATGATGAT	0.968
TCTTAACCC	1.04
CAGGAAGGTC	0.995
CACAGGTCGA	1.04
CTTTGCGAT	1.69
CGGCGCGTAT	1.02
CATGTTGGTG	0.978
TGGACGGGCT	0.998
TCAGATTTTC	1.01
GGTATCCCGT	0.993
CCCTGGCAAG	1.5
CAGAATGGAT	0.996
TGTGACAGCC	1.04
TTTTCGGCGC	1.61
GCAGCTGGGC	1.14

Sequence	switch fluorescence ratio
AAGAACTTGA	1.05
GGTTGGTACC	0.991
AGTAAGGGC	1
AGGCAGTTAG	1
GGGTTGAATT	1
ATTAACTCGG	1.01
AAAATGCGG	1.01
CTTCACGGTA	1.19
TCTTTAACGA	1.04
CACACTACTG	1.24
GATATAGTCC	0.998
CTTGAGGTCC	1.02
CAATTATGTG	0.957
GATGTAGACA	0.999
AGGTTACGGC	1.03
GTTTACGATC	0.966
CGTTAGAGCA	1.01
ACTGAAGATC	1.01
ACTACTGCAC	1.74
